Screen size: about 39,000 compounds; about 220 (0.56%) showed activity. Some of the results follow.
The molecules below were run on Escherichia coli K-12 BW25113 (assay: relative growth (OD600 normalised to plate interquartile mean) (fraction); higher = less growth inhibition, active = 0.2 or less). Settings: 50 µM; LB; incubation time: overnight (16-24 h).
With `C[C@H]1CN([C@@H](C)CO)C(=O)Cc2cc(NS(=O)(=O)c3cn(C)cn3)ccc2O[C@@H]1CN(C)C(=O)NC1CCCCC1` the relative growth was inactive: 0.969.
With `COc1ccc(NC(=O)Nc2ccc3c(c2)C(=O)N([C@H](C)CO)C[C@@H](C)[C@@H](CN(C)S(=O)(=O)c2ccc(Cl)cc2)OCCCC[C@@H](C)O3)cc1` the relative growth was inactive: 1.02.
With `C#CCOC(=O)[C@@H]1[C@@H](C(=O)O)[C@@H]2C=C[C@@H]1C2` the relative growth was inactive: 1.01.
In the case of `C[C@H](CO)N1C[C@H](C)[C@H](CN(C)Cc2ccc(Oc3ccccc3)cc2)Oc2c(NS(=O)(=O)c3ccccc3)cccc2C1=O`, the relative growth is reported as inactive: 1.
In the case of `Cc1noc(C)c1NC(=O)Nc1ccc2c(c1)C(=O)N([C@H](C)CO)C[C@H](C)[C@H](CN(C)CC1CC1)OCCCC[C@H](C)O2`, the relative growth is reported as inactive: 1.01.
With `C[C@@H]1CN([C@H](C)CO)C(=O)c2cccc(NC(=O)Nc3ccc(F)cc3)c2O[C@@H]1CN(C)Cc1ccc(-c2ccccc2)cc1` the relative growth was inactive: 1.
In the case of `Cc1ccc(S(=O)(=O)N(C)C[C@H]2OCCCC[C@H](C)Oc3ccc(NC(=O)Nc4ccccc4)cc3C(=O)N([C@H](C)CO)C[C@H]2C)cc1`, the relative growth is reported as inactive: 1.03.
In the case of `NCc1ccc2nsnc2c1`, the relative growth is reported as inactive: 0.98.
With `C[C@H]1CCCCO[C@H](CN(C)C(=O)Nc2ccc(F)cc2)[C@@H](C)CN([C@@H](C)CO)C(=O)c2cc(NC(=O)CCC(F)(F)F)ccc2O1` the relative growth was inactive: 1.04.
With `CC(=O)SC1CC2=CC(=O)CCC2(C)C2CCC3(C)C(CCC34CCC(=O)O4)C12` (configuration not stated) the relative growth was inactive: 1.11.
In the case of `Cc1ccccc1S(=O)(=O)N1C[C@H](O)COC[C@@H]2O[C@H](CC(=O)NCCc3ccccc3)CC[C@H]21`, the relative growth is reported as inactive: 1.01.
For `C[C@@H]1CN([C@H](C)CO)C(=O)Cc2cc(NC(=O)Cn3cnnn3)ccc2O[C@@H]1CN(C)Cc1ccc(-c2ccccc2)cc1`, the relative growth was inactive: 1.02.
With `Cc1noc(C)c1N` the relative growth was inactive: 0.981.
`Cc1ccc(S(=O)(=O)Nc2ccc3c(c2)C(=O)N([C@H](C)CO)C[C@H](C)[C@@H](CN(C)Cc2ccc(Cl)c(Cl)c2)OCCCC[C@H](C)O3)cc1` was tested, and the relative growth was inactive: 0.992.
In the case of `COc1ccc([Si](C)(C)[C@H]2[C@H](CC(=O)N(CCO)Cc3ccccc3)O[C@@]3(C(=O)N(Cc4ccc(N5CCOC5=O)cc4)c4ccccc43)[C@@H]2C)cc1`, the relative growth is reported as inactive: 0.988.
In the case of `COC(=O)c1cc(=O)[nH]c2c1c(=O)n(C)c(=O)n2C`, the relative growth is reported as inactive: 1.02.
In the case of `C[C@@H]1CN([C@@H](C)CO)S(=O)(=O)c2ccc(-c3cncnc3)cc2O[C@H]1CN(C)C(=O)c1ccc2c(c1)OCO2`, the relative growth is reported as inactive: 0.995.
`C[C@@H]1CCCCO[C@@H](CN(C)C(=O)C2CCCCC2)[C@H](C)CN([C@@H](C)CO)C(=O)c2cc(NS(=O)(=O)c3cccs3)ccc2O1` was tested, and the relative growth was inactive: 0.982.
For `COc1ccc2c3c([nH]c2c1)[C@H](CO)N(C[C@]13CCN(CC1)C(=O)Nc1ccc2c(c1)OCO2)C(=O)Nc1ccc(cc1)F`, the relative growth was inactive: 1.01.
For `C[C@H]1CC/C=C\[C@H]2O[C@@]34C=CCN(c5ccc(Cl)cc5)C(=O)[C@H]3N(CCO)C(=O)[C@]4(C)[C@@H]2C(=O)O1`, the relative growth was inactive: 0.997.
`CN1C(=O)c2cc(NC(=O)C3CCOCC3)ccc2OC[C@H]2O[C@@H](CC(=O)NCCc3ccncc3)CC[C@H]21` was tested, and the relative growth was inactive: 0.997.
In the case of `C[C@@H]1CN([C@@H](C)CO)C(=O)c2c(c3ccccc3n2C)-c2ccccc2CO[C@H]1CN(C)Cc1cccc(C(=O)Nc2ccccc2N)c1`, the relative growth is reported as inactive: 0.998.
`C[C@H](CO)N1C[C@H](C)[C@@H](CN(C)C(=O)Nc2ccc(C(F)(F)F)cc2)OCCCC[C@H](C)Oc2ccc(NC(=O)Nc3ccc4c(c3)OCO4)cc2C1=O` was tested, and the relative growth was inactive: 1.01.
For `C[C@@H]1CN([C@H](C)CO)C(=O)c2cccc(NS(=O)(=O)c3cccs3)c2O[C@@H]1CN(C)S(=O)(=O)c1cn(C)cn1`, the relative growth was inactive: 0.978.
In the case of `CN1CCN(C(=O)C[C@H]2C[C@@H]3c4cc(NS(=O)(=O)c5ccc(F)cc5)ccc4O[C@@H]3[C@@H](CO)O2)CC1`, the relative growth is reported as inactive: 1.03.
For `C[C@H](CO)N1C[C@H](C)[C@@H](CN(C)C(=O)Nc2ccc3c(c2)OCO3)Oc2ccc(NC(=O)Nc3ccc(C(F)(F)F)cc3)cc2C1=O`, the relative growth was inactive: 0.991.
In the case of `COCCOC(=O)N1C(=O)[C@@]2(c3cc(C#CCCO)ccc31)[C@H](c1ccccc1OCCO)N1[C@H](c3ccccc3)[C@H](c3ccccc3)OC(=O)[C@H]1[C@@H]2C(=O)Nc1nc2ccccc2s1`, the relative growth is reported as inactive: 1.02.
For `C[C@H](CO)N1C[C@H](C)[C@H](CN(C)S(=O)(=O)c2cccs2)OCCCC[C@H](C)Oc2ccc(NC(=O)CCC(F)(F)F)cc2C1=O`, the relative growth was inactive: 0.997.
`C[C@@H]1CCCCO[C@H](CN(C)CC2CCCCC2)[C@H](C)CN([C@@H](C)CO)C(=O)c2cc(NC(=O)Nc3cccc4ccccc34)ccc2O1` was tested, and the relative growth was inactive: 0.967.
`O=C(C[C@H]1NCCNC1=O)Nc1ccc2c(c1)OCCO2` was tested, and the relative growth was inactive: 0.966.
In the case of `C[C@H](CO)N1C[C@H](C)[C@H](CN(C)Cc2ccc(-c3ccccc3)cc2)Oc2ccc(NC(=O)c3ccncc3)cc2C1=O`, the relative growth is reported as inactive: 1.02.
For `COc1ccc(CN(C)C[C@H]2OCCCC[C@@H](C)Oc3ccc(NC(=O)Nc4ccc(F)cc4)cc3C(=O)N([C@@H](C)CO)C[C@H]2C)cc1`, the relative growth was inactive: 0.979.
For `Cc1cccc(C)c1NC(=O)c1cc(S(N)(=O)=O)c(Cl)cc1O`, the relative growth was inactive: 0.974.
With `CCS(=O)(=O)Nc1ccc2c(c1)C(=O)N(C)C[C@H](OC)[C@H](C)CN(CCC(F)(F)F)[C@@H](C)CO2` the relative growth was inactive: 1.02.
For `CCO[C@H]1OC(C(=O)N2CCN(Cc3ccc4c(c3)OCO4)CC2)=C[C@@H](C)[C@@H]1CCCOC(=O)NCCCCCC(=O)NO`, the relative growth was inactive: 0.996.
In the case of `O=C(C[C@@H]1C[C@H]2c3cc(NC(=O)C4CCOCC4)ccc3O[C@H]2[C@H](CO)O1)NCc1cc(F)ccc1F`, the relative growth is reported as inactive: 0.985.
In the case of `C[C@@H]1CCCCO[C@H](CN(C)C(=O)Nc2cccc3ccccc23)[C@H](C)CN([C@H](C)CO)C(=O)c2cc(NS(=O)(=O)c3cccs3)ccc2O1`, the relative growth is reported as inactive: 1.03.
With `C[C@@H]1CCCCO[C@@H](CN(C)C(=O)Nc2ccc(C(F)(F)F)cc2)[C@H](C)CN([C@@H](C)CO)C(=O)c2cc(NC(=O)Nc3cccc4ccccc34)ccc2O1` the relative growth was inactive: 1.01.
With `CN(C)CCC=C1c2ccccc2C=Cc2ccccc21.Cl` the relative growth was inactive: 0.82.
With `COc1cccc(C#Cc2ccc3c(c2)O[C@H](CN(C)C(=O)c2ccccn2)[C@H](C)CN([C@@H](C)CO)S3(=O)=O)c1` the relative growth was inactive: 1.01.
In the case of `CO[C@H](C(=O)N(C)C[C@H]1OCc2ccccc2-c2c(n(C)c3ccccc23)C(=O)N([C@H](C)CO)C[C@H]1C)c1ccccc1`, the relative growth is reported as inactive: 1.
With `Cc1ccc(S(=O)(=O)Nc2ccc3c(c2)C(=O)N([C@H](C)CO)C[C@H](C)[C@H](CN(C)C(=O)Nc2ccccc2)OCCCC[C@H](C)O3)cc1` the relative growth was inactive: 1.03.
With `COc1ccc(NC(=O)Nc2ccc3c(c2)C(=O)N([C@@H](C)CO)C[C@H](C)[C@@H](CN(C)C(=O)Cc2ccccc2)OCCCC[C@@H](C)O3)cc1` the relative growth was inactive: 1.02.
In the case of `Cc1noc(C)c1S(=O)(=O)Nc1ccc2c(c1)C(=O)N([C@H](C)CO)C[C@H](C)[C@H](CN(C)S(=O)(=O)c1cn(C)cn1)OCCCC[C@H](C)O2`, the relative growth is reported as inactive: 0.975.
`COc1ccc2cc1Oc1ccc(cc1)CC1c3c(cc4c(c3Oc3cc5c(cc3OC)CCN(C)C5C2)OCO4)CCN1C` (configuration not stated) was tested, and the relative growth was inactive: 0.844.
For `Cc1noc(C)c1NC(=O)Nc1ccc2c(c1)CC(=O)N([C@@H](C)CO)C[C@H](C)[C@@H](CN(C)CC1CC1)O2`, the relative growth was inactive: 1.
With `COC(=O)[C@H]1[C@H](CO)[C@H]2Cn3c(cccc3=O)[C@H]2N1C(=O)C1CC1` the relative growth was inactive: 0.997.
With `C[C@@H]1CN([C@@H](C)CO)C(=O)c2cccc(NS(=O)(=O)c3cccs3)c2O[C@@H]1CN(C)Cc1ccc(Oc2ccccc2)cc1` the relative growth was inactive: 1.
For `C[C@H](CO)N1C[C@H](C)[C@@H](CN(C)Cc2ccc(Oc3ccccc3)cc2)Oc2ncc(-c3ccncc3)cc2C1=O`, the relative growth was inactive: 1.01.
For `Cc1noc(C)c1NC(=O)Nc1ccc2c(c1)CC(=O)N([C@@H](C)CO)C[C@@H](C)[C@H](CN(C)S(C)(=O)=O)O2`, the relative growth was inactive: 1.01.
In the case of `COc1ccc(S(=O)(=O)N(C)C[C@H]2Oc3ncc(Br)cc3C(=O)N([C@@H](C)CO)C[C@@H]2C)cc1`, the relative growth is reported as inactive: 1.02.
`C[C@@H]1CN([C@@H](C)CO)C(=O)c2cc(NC(=O)C3CC3)ccc2O[C@@H]1CN(C)S(=O)(=O)c1ccc(F)cc1` was tested, and the relative growth was inactive: 0.972.
With `C[C@H](CO)N1C[C@H](C)[C@H](CN(C)C(=O)C2CCC2)Oc2cc(C#Cc3ccncc3)ccc2S1(=O)=O` the relative growth was inactive: 0.998.
`COc1ccc(S(=O)(=O)Nc2ccc3c(c2)C(=O)N([C@@H](C)CO)C[C@@H](C)[C@@H](CN(C)Cc2ccc4c(c2)OCO4)OCCCC[C@@H](C)O3)cc1` was tested, and the relative growth was inactive: 0.95.
In the case of `CC(C)NC(=O)N(C)C[C@@H]1Oc2ccc(NC(=O)Nc3ccc4c(c3)OCO4)cc2CC(=O)N([C@H](C)CO)C[C@H]1C`, the relative growth is reported as inactive: 1.03.
With `COCCOC(=O)N1C(=O)[C@@]2(c3cc(C#CCNC(N)=O)ccc31)[C@H](C(=O)N1CCc3cc(OC)c(OC)cc3C1)[C@H]1C(=O)O[C@H](c3ccccc3)[C@H](c3ccccc3)N1[C@@H]2c1ccc(OCCO)cc1` the relative growth was inactive: 1.05.
For `COc1ccc([C@@H]2CC(=O)c3c(O)cc(O[C@@H]4O[C@H](CO)[C@@H](O)[C@H](O)[C@H]4O[C@@H]4O[C@@H](C)[C@H](O)[C@@H](O)[C@H]4O)cc3O2)cc1O`, the relative growth was inactive: 1.

— the supplement of paper PMC9446081
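Further: static incubation at 37 °C against the wild-type strain, values averaged over two biological replicates.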
